Our source for the binding signal values is publication PMC7819943, “Rice protein-binding microarrays: a tool to detect cis-acting elements near promoter regions in rice”.

Some of the results follow.

The target of this experiment is T1, OsWOX13 (Oryza sativa, UniProt Q5QMM3 1-267).
T1 sequence: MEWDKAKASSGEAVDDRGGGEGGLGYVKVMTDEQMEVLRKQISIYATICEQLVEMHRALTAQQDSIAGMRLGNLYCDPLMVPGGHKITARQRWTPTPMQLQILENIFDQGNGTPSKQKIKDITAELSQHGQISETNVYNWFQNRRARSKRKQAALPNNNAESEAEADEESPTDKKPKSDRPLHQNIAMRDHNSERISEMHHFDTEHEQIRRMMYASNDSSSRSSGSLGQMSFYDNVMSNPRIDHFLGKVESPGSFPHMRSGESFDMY
Description: protein-binding microarray (RPBM); PBS, 2% BSA, 51.3 ng/ul salmon testes DNA, 50 uM zinc acetate, 200 nM TF, 25 C, 1 h; high values mean tight binding. To be noted: protein: recombinant; tags: N-terminal polyhistidine and DsRed monomer fusion (pET32a); label: CyDye5-dUTP incorporated in the synthesized complementary strand; 3' TTTTT single-stranded linker to array surface; dsDNA, one strand shown. In a few lines: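 The binding signal for each feature is its fluorescence intensity in arbitrary units. An Axon 4000B scanner was used to read a custom Agilent array that had been made double-stranded with Cy5-dUTP primer extension, blocked with 2% BSA, incubated at 25 °C for 1 h with 200 nM protein in PBS, 2% BSA, salmon testes DNA and 50 µM zinc acetate, and washed. The protein was an N-terminal polyhistidine–DsRed transcription factor fusion from E. coli BL21-CodonPlus, purified on Ni–NTA.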
For “GGAATTCCCTCCCAATTACCTGCCCCTACCCAGGTATTGACGGAGTCACCTAGTGCAG”, the binding signal was 3340 fluorescence intensity (a.u.).
Take “TTGTTACTCGTGATTTGGAAGAAATTATCTGATTCTGTTTCGGAGTCACCTAGTGCAG”: the binding signal is 4560 fluorescence intensity (a.u.).
To “GTAAATTACACATAACTGTTAACTGTTTTAAGAGTAAGTTCGGAGTCACCTAGTGCAG” belongs 41900 fluorescence intensity (a.u.).
In the case of “ATTTTCCGTCCCCTTACCACGCTATTTCTCACGATTAATACGGAGTCACCTAGTGCAG” it was 3300 fluorescence intensity (a.u.); in that of “ATGGTTGTGATTTGTTTAGGTCGAGTAAAGGAGGAATTCCCGGAGTCACCTAGTGCAG”, 9110 fluorescence intensity (a.u.); in that of “GACGTTTAGATAGATTAATATGAAGACATTTTGCTTTTGGCGGAGTCACCTAGTGCAG”, 13000 fluorescence intensity (a.u.).
On to “AGGACTGCTTATCAATTATCAAGTCGAAGTTTGGCTATTGCGGAGTCACCTAGTGCAG”, for which the binding signal is 5050 fluorescence intensity (a.u.).
Regarding “AAACACCTAAAAGCAATTAATTGTACACTTATGATTTCCTCGGAGTCACCTAGTGCAG”, the binding signal is 8280 fluorescence intensity (a.u.).
For the sequence “CAATGATTGGGGTCCGACATTAGGCTCCACCTTAGGGTTGCGGAGTCACCTAGTGCAG”, the binding signal was 42900 fluorescence intensity (a.u.).
In the case of “ACTTAATTATTTGTAGACAAAGCAATGCATGACATACCTCCGGAGTCACCTAGTGCAG” it was 29700 fluorescence intensity (a.u.); in that of “AGTTGCACTGTAATTATAGTGTAATTACGTGTAGTAACACCGGAGTCACCTAGTGCAG”, 9670 fluorescence intensity (a.u.).
In the case of “GCGCATTCCTTGCTTAATTAATGGGCTGTCAGTGGGCGAACGGAGTCACCTAGTGCAG” it was 3740 fluorescence intensity (a.u.); in that of “AGTGAATCTTAAATTGAAGCAAAACGAATCGGATTTGGTTCGGAGTCACCTAGTGCAG”, 6420 fluorescence intensity (a.u.); in that of “AATTTATATTATAATTGACATTAGTGGAATACGAGGGGATCGGAGTCACCTAGTGCAG”, 23000 fluorescence intensity (a.u.).
To “TTTATATCATTCTAATTGATTCTGATAGTGCAGCGCAAACCGGAGTCACCTAGTGCAG” belongs 18800 fluorescence intensity (a.u.).
On to “AAGACCATAACACAATTTAAATTGTTCGTTTATAACAATACGGAGTCACCTAGTGCAG”, for which the binding signal was 9700 fluorescence intensity (a.u.).
In the case of “GTCTAACTGCCAACATCTTCATATGGCCCATCAATGCTTTCGGAGTCACCTAGTGCAG” it was 3600 fluorescence intensity (a.u.).
To “GACATAAACGACCCACTGACATGTGGGCCCCACGGAGCCGCGGAGTCACCTAGTGCAG” belongs 7270 fluorescence intensity (a.u.); to “GTGAGACAACAAATTAAGCAAAGCAGCGTCGATCGTCAGTCGGAGTCACCTAGTGCAG”, 3510 fluorescence intensity (a.u.); to “GGCTAATAACATCATGTGACTAGTTTGTGGACTGTTTCACCGGAGTCACCTAGTGCAG”, 3590 fluorescence intensity (a.u.).
In the case of “CCTTCCTGATTTCAATCAGCCGTTTACAGTAGAAACAGATCGGAGTCACCTAGTGCAG” it was 41400 fluorescence intensity (a.u.); in that of “TAAACATAATATAGATTGTGTGTCTAATTTTAACATTTGGCGGAGTCACCTAGTGCAG”, 10300 fluorescence intensity (a.u.); in that of “GTCTTTGACAACTATTGATGCATAACCCATGTTAACACCCCGGAGTCACCTAGTGCAG”, 4000 fluorescence intensity (a.u.).
With “TGTTAATGATTTAGATTCATTAACATTAATATGAATGTGGCGGAGTCACCTAGTGCAG”, the binding signal was 33700 fluorescence intensity (a.u.).
In the case of “TGAAAACTTTCAACTTAGATTGGAAAACTTTTAACTCGAGCGGAGTCACCTAGTGCAG” it was 8230 fluorescence intensity (a.u.); in that of “TGAACTAATTACCACCCATATTGAACACTATGTTACCCTACGGAGTCACCTAGTGCAG”, 20400 fluorescence intensity (a.u.).
To “TATAATTTAGATAATAAACTAGAAGCCAGATTCTTACAAGCGGAGTCACCTAGTGCAG” belongs 11700 fluorescence intensity (a.u.); to “AATTAATTTATTCATTTGTATTATTGAATATAATAAAACCCGGAGTCACCTAGTGCAG”, 38000 fluorescence intensity (a.u.).
In the case of “ATAAATTAGCACCCACCTCTGCCTTCCTACCTTCCCCTCCCGGAGTCACCTAGTGCAG” it was 24900 fluorescence intensity (a.u.); in that of “CTCTACATCTAATTAGATATGTACAGTATTTTAAAATTGACGGAGTCACCTAGTGCAG”, 12700 fluorescence intensity (a.u.); in that of “CGGCCTATAATCAATCAATCGTTTGTTTGTCACATCCAACCGGAGTCACCTAGTGCAG”, 19000 fluorescence intensity (a.u.).
“TCCCTGAAATTTCTGAATTTTGCCAATTTTGATGGGGCCTCGGAGTCACCTAGTGCAG”: the binding signal is 4580 fluorescence intensity (a.u.).
In the case of “TTTGGCTTGATTGTATACCTTATGTGAACTACTTTGGTACCGGAGTCACCTAGTGCAG” it was 13000 fluorescence intensity (a.u.); in that of “TTAACTCTTGATTGATGTAAGCTGCAGATCACTTGGATTTCGGAGTCACCTAGTGCAG”, 45800 fluorescence intensity (a.u.).
For “TTCAAACCATGATTGGCCTCCATGAACAAGTAAGAAAAGGCGGAGTCACCTAGTGCAG”, the binding signal was 13900 fluorescence intensity (a.u.).
For the sequence “CTAGATGGATTATTCCCACTCAAGAAATCCATCTGACCGTCGGAGTCACCTAGTGCAG”, the binding signal is 13600 fluorescence intensity (a.u.).
To “ACAAATTTACATACTAATTGTAATTAGTATGTAATTTTCGCGGAGTCACCTAGTGCAG” belongs 31600 fluorescence intensity (a.u.).
To “TTGATGACACTATTTTCACATAACAGCATTGCATGATTGCCGGAGTCACCTAGTGCAG” belongs 3870 fluorescence intensity (a.u.); to “TTAATTTAATGAAACTAATTTAGTAATATAAATATTATTACGGAGTCACCTAGTGCAG”, 25000 fluorescence intensity (a.u.); to “AACCAGGCTTACAAATTTGATTGTTTATTGAAGATCGACCCGGAGTCACCTAGTGCAG”, 13600 fluorescence intensity (a.u.).
In the case of “ATTCAAATATGATTTTATTGGTTAACAACGAGATCTTATGCGGAGTCACCTAGTGCAG” it was 5790 fluorescence intensity (a.u.).
Regarding “GCACCTAATTTTCTTCGTCCTCTCCCTCTCTTCTTCTCTTCGGAGTCACCTAGTGCAG”, the binding signal is 3190 fluorescence intensity (a.u.).
